About 450 (0.94%) of roughly 48,000 compounds were called active. Another 19% or so got no clear call; they are omitted. Calls follow the shape of the dose curve; as a rule, active = well fitted inhibition curve with a large enough effect; inconclusive = small, poorly fitted or top-dose-only effect; inactive = no such curve, though single readings can be large or run the other way. The list shows a part of the results.
Assay: Primary qHTS for Identification of Small Molecule Inhibitors of Huntingtin Promoter Activity; also: nearly all actives have a fitted effect of over 50% in size
Conditions: HEK293 HTT promoter firefly luciferase reporter (activity 0% = vehicle and -100% = no light), 24 h; series mostly up to 57.5 µM; activity change, negative = inhibition: at the top concentration
How it was run: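 Luminescence was read after Dual-Glo reagent and a 10 min room-temperature incubation. Values were normalized to vehicle (0% activity) and zero RLU (-100% activity). Reporter HEK293 cells had been exposed to compounds (up to 57.5 uM final) for 24 h.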

Activity change, negative = inhibition, inactive:
COc1ccc(CNC(=O)c2nc(Cn3nc(C)c(Br)c3C)no2)cc1OC -40.5%
COc1cc(NC(=O)c2sc3nc4n(c(=O)c3c2C)CCCCC4)cc(OC)c1OC -16.1%
COc1ccc(CCNC(=O)C(=O)Nc2ccc(C)cc2)cc1OC -10.1%
COc1ccc(N2CCN(S(=O)(=O)c3c(C)[nH]c(=O)[nH]c3=O)CC2)cc1 0.183%
CCN(C(=O)c1cc2cc3ccc(OC)cc3nc2o1)c1cccc(C)c1 -14.6%
Cc1ccc(C)c(NC(=O)CSc2nc(-c3ccccc3)cc(=O)[nH]2)c1 -4.5%
COc1ccc(-c2nc(C(=O)Nc3ccc(C(C)=O)cc3)nn2-c2cccc(Cl)c2)cc1 -24.7%
CC(C)NCC(O)COc1ccc(COCCOC(C)C)cc1 (stereo not drawn)
COc1ccc(CN(Cc2ccco2)c2cnc(S(C)(=O)=O)nc2C(=O)Nc2ccc(F)cc2)cc1 -28.1%
COc1ccc(OC)c(-c2csc(-c3c(N)c(C(=O)c4ccccc4)n4ccccc34)n2)c1 0.64%
Cn1c(=O)n(C/C=C/c2ccccc2)c(=O)c2c1nc1n2CCN1c1ccccc1 -2.87%
CCCCOc1ccc(CNC(=O)C2COc3ccc(OC)cc3C2)cc1 (stereo not drawn) -10.4%
COc1ccc(S(=O)(=O)N(CC(=O)Nc2cccc(C(F)(F)F)c2)c2ccc(C)cc2)cc1 -32.7%
CCOc1ccc(C(=O)c2cn(CC(=O)Nc3ccc4c(c3)OCO4)c3ccc(OCC)cc3c2=O)cc1 -19.8%
COc1ccc(-n2c(=O)c3c(c4cc(OC)ccc4n3C)n(Cc3cc(C)ccc3C)c2=O)cc1 0.202%
COC(=O)c1cccnc1-n1c(=O)c2cccnc2n(CC(=O)Nc2c(C)cc(C)cc2C)c1=O -10.6%
O=C(Cn1ncn2nc(-c3cccs3)cc2c1=O)NCc1cccc(Br)c1 -12.8%
Cc1ccc(NC(=O)CN2C(=O)COc3ccc(S(=O)(=O)N4CCCCC4)cc32)cc1N(C)C -6.31%
Cc1cccc(CNC(=O)c2ccc(NC(=O)N3CC(C)Sc4ccccc43)cc2)c1 (stereo not drawn) -7.9%
CC(C)CN(CCNC(=O)CN1C(=O)CSc2ccc(S(=O)(=O)N3CCOCC3)cc21)CC(C)C -11.4%
CCOc1ccc(S(=O)(=O)N(CC(=O)Nc2ccc3c(c2)OCO3)c2ccccc2)cc1 -9.61%
O=C(/C=C\c1ccc2c(c1)OCO2)NC1CC(=O)N(c2cccc(F)c2)C1 (stereo not drawn) -19.5%
COc1ccccc1CNC(=O)c1ccc2c(c1)CCN2S(=O)(=O)c1ccccc1 -22.3%
O=C(Nc1c(-c2ccc(F)cc2)nc2ccccn12)c1ccccc1F -7.94%
Cc1ccc(-n2c3c(c(=O)[nH]c2=O)C(NC(=O)c2ccccc2C)(C(F)(F)F)C(=O)N3)cc1 (stereo not drawn) -6.69%
COc1cccc(/C=C/c2onc(C)c2S(=O)(=O)N2CCC(C(=O)N3CCC(C)CC3)CC2)c1 -20.5%
COc1ccccc1N1CCN(C(=O)CSc2n[nH]c(-c3ccccc3)n2)CC1 -19.3%
COc1ccc(-c2cn3c(n2)sc2cc(C(=O)Nc4cccc(OC)c4)ccc23)cc1 -13.4%
COC(=O)c1scc(-c2ccc(C)cc2)c1S(=O)(=O)Nc1ccc(N(C)C)cc1 0.569%
CCOC(=O)C1=C(CN2CCN(c3ccccc3F)CC2)NC(=O)NC1c1ccc(Cl)cc1 (stereo not drawn) -7.55%
CCOc1ccc(NC(=O)CC2C(=O)N(c3ccccc3)C(=O)N2Cc2ccc3c(c2)OCO3)cc1 (stereo not drawn) -17.7%
Cc1nc2c(-c3ccccc3)c(C)nn2c(C)c1CCC(=O)NCc1ccc(F)cc1 -11.6%
Cc1c(Cl)cccc1-n1nc(C)c2c(C(=O)NCc3ccccc3)cc(C3CC3)nc21 -21.6%
Cn1c(=O)oc2cc(S(=O)(=O)Nc3ccccc3O)ccc21 -10.5%
Cc1ccc(-c2cc(NC(=O)COc3ccc(Cl)cc3C)on2)cc1 16.1%
COc1ccc(-c2cc(C(F)(F)F)nc(SCC(=O)N3CCC(C)CC3)n2)cc1 -3.06%
Cc1ccc(NC(=O)N2CCN(C)c3ncccc32)cc1C 5.2%
O=C(CN1C(=O)COc2ccc(S(=O)(=O)N3CCCCCC3)cc21)NCCc1ccccc1 -2.99%
COc1cc(OC)c(N(C)C(=O)Cn2ncc3c(=O)oc4ccccc4c32)cc1Cl -1.03%
Cc1ccc(CN2C(=O)N(c3ccccc3)C(=O)C2CC(=O)Nc2ccccc2)cc1 (stereo not drawn) -18.4%
COCCNC(=O)c1c(NC(=O)c2cc(=O)c3cc(Cl)ccc3o2)sc2c1CCCC2 2.7%
COC(=O)c1ccccc1NC(=O)N1CCC(n2c(C)nc3cccnc32)CC1 0%
COc1ccccc1NC(=O)Cn1nnc(C(=O)Nc2ccccc2Br)c1N -8.64%
CC(=O)N1CCN(c2csc3ccc(Br)cc3c2=O)CC1 20.2%
Cc1ccc(CNC(=O)c2cc(=O)c3cc(C)cc(C)c3o2)cc1 18.5% [at 11.5 µM]
CCC(C)NC(=O)CSc1nc(-c2ccc(F)cc2)cc(C(F)(F)F)n1 (stereo not drawn) -5.74%
COC(=O)c1ccccc1NC(=O)c1cnc2sc(N3CCOCC3)nn2c1=O 5.99%
CCOc1ccc(NC(=O)c2cc3cc4cc(OC)ccc4nc3s2)cc1 -2.2%
Cc1cccc(NS(=O)(=O)c2ccc3c(c2)OCC(C(=O)N2CCCC2)O3)c1C (stereo not drawn) -27%
COc1cccc(C(=O)Nc2cccc(C(=O)OCc3cc(=O)n4c5c(sc4n3)CCCC5)c2)c1 -23.3%
COc1ccc2cc(CNc3ccc(C)cc3)c(=O)n(CC(=O)Nc3cccc(C(F)(F)F)c3)c2c1 -29%
CCOC(=O)CSc1nc2c(sc3cccc(F)c32)c(=O)n1Cc1ccc(OC)cc1 -8.03%
O=c1c2cccnc2n(Cc2cccc(F)c2)c(=O)n1Cc1ccccc1Cl -19.4%
Cc1ccc(S(=O)(=O)c2cn(CC(=O)Nc3ccc4c(c3)OCO4)c3ccccc3c2=O)cc1C -24.7%
COc1ccccc1-n1c(=O)c2c3c(sc2n(Cc2ccccc2F)c1=O)CN(C(C)=O)CC3 0.478%
O=C(NCCS(=O)(=O)N1CCN(c2ccc(F)cc2)CC1)C1CC(=O)N(c2ccccc2)C1 (stereo not drawn) -5.64%
CC(C)c1cc(-c2nc(-c3ccc(Br)cc3)no2)n[nH]1 26%
CCCN1CCN(CCNC(=O)Nc2ccccc2OCC)CC1 -4.96%
Cc1cc2c(n1-c1ccc(C(=O)NCCc3ccccc3)cc1)CCC(C)C2 (stereo not drawn) 29.6%
CCCN(Cc1cccs1)C(=O)Nc1ccc(Br)cc1F 11.8%
COc1ccc2[nH]c(=O)c(CN(C(=O)c3cccc(Cl)c3)c3cccc(C)c3)cc2c1 -9.16%
C[C@H]1C[C@H]2[C@@H]3CCC4=CC(=O)C=C[C@]4(C)[C@@H]3C(=O)C[C@]2(C)[C@@]1(O)C(=O)CO -23.2%
CCN1CCN(c2ncc3c(n2)CCN(Cc2ccc(OC)c(OC)c2)C3)CC1 -9.02%
CCN1C(=O)c2ccccc2S(=O)c2ccc(C(=O)N3CCN(c4ccccc4OC)CC3)cc21 (stereo not drawn) -35.4%
COc1cccc(CNC(=O)CCCCCn2c(=O)[nH]c3cc(OC)c(OC)cc3c2=O)c1 -9.1%
CCOC(=O)c1c(C)[nH]c(C)c1S(=O)(=O)NCC(=O)NCc1ccccc1Cl -9.43%
COc1cc(C(CC(=O)Nc2cc(C)ccn2)N2Cc3ccccc3C2=O)cc(OC)c1OC (stereo not drawn) -11.2%
Cc1cc2c(n1-c1ccc(C(=O)NCc3ccc(OC(C)C)cc3)cc1)CCCC2 -2.01%
COc1cc(-c2oc3ccc(C)cc3c(=O)c2O)cc(OC)c1OC -25.5%
COc1ccc2c(c1)c1c(c(=O)n(-c3cccc(C)c3)c(=O)n1CC(=O)NCC1CCCO1)n2C (stereo not drawn) -7.1%
COc1ccccc1CNC(=O)CCCn1c(=O)c2ccccc2n(Cc2ccccc2C#N)c1=O -9.61%
CCOc1ccccc1C(=O)Nc1ccc(S(=O)(=O)Nc2ncccn2)cc1 -9.29%
Cc1cccc(Cc2c(C)nc3nc(SCc4ccccc4F)nn3c2C)c1 -10.3%
CC(C)=CCC/C(C)=C/CC/C(C)=C/C(=O)OCC(=O)[C@@]1(O)CC[C@H]2[C@@H]3CCC4=CC(=O)C=C[C@]4(C)[C@H]3[C@@H](O)C[C@@]21C 9.08%
COc1ccc(OC)c(NC(=O)Cn2c(=O)n(Cc3nc(C)no3)c(=O)c3ccccc32)c1 -8.87%
COc1ccc(Cl)cc1NC(=O)NCCc1c(C)nn(C)c1C -12.6%
CC(=O)Nc1ccc(NC(=O)c2cc(-c3cccs3)on2)cc1 10.4%
O=C(CSC1=Nc2ccccc2N=C(c2ccc(F)cc2)C1)Nc1ccc(Cl)cc1 -1.99%
Cc1ccc(Sc2c(C)nn(C(=O)c3ccc(Br)cc3)c2C)cc1 -20.2%
COc1ccc(Nc2ncnc3onc(C)c23)c(OC)c1 -9.07%
CC(C)(C)c1nnc(NS(=O)(=O)c2ccc(N)cc2)s1 -2.1%
COc1ccc(N2CCN(C(=O)C(C)n3c(=O)cc(C(F)(F)F)c4c(C)nn(C)c43)CC2)cc1 (stereo not drawn) -5.77%
Cn1cnc(S(=O)(=O)N2CCCC(C(=O)NCc3ccccc3)C2)c1 (stereo not drawn) -13.2%
Cc1cccc(N2CCN(C(=O)Cn3ncc4c([nH]c5ccccc54)c3=O)CC2C)c1 (stereo not drawn) 8%
CCOc1ccc(NC(=O)c2cc(C)nc3c2c(C)nn3-c2cccc(F)c2)cc1 -9.67%
CC1(C(=O)NC2CCCCC2)Cc2ccccc2C(=O)N1Cc1ccc(F)cc1 (stereo not drawn) -27.7%
Cc1c(OCC(F)(F)F)ccnc1CS(=O)c1nc2ccccc2[nH]1 (stereo not drawn)
O=C(CSc1nc2ccccc2nc1Cc1ccccc1)Nc1ccccc1C(F)(F)F -15.1%
CCOc1ccc(CNC(=O)c2cnc3sc(N(CC)CC)nn3c2=O)cc1 -3.48%
O=C(NCCS(=O)(=O)N1CCN(c2ccccc2F)CC1)C1CC(=O)N(c2ccccc2)C1 (stereo not drawn) -14.6%
Nc1nc(F)nc2c1ncn2[C@@H]1O[C@H](CO)[C@@H](O)[C@@H]1O -0.85%
O=C(Nc1ccc(C(=O)OCc2cc(=O)n3nc(C4CC4)sc3n2)cc1)c1cccc(Cl)c1 -3.31%
CCc1ccccc1NC(=O)C(CC)Oc1ccccc1-c1nnc(-c2ccccc2)o1 (stereo not drawn) -5.57%
